± gives the standard deviation of the averaged measurements. Restriction of a single-cycle SIVsab GFP reporter by TRIM5α v1-loop variants in CRFK cells. Human variants: read share among cells still uninfected after two challenges over input, higher = gained restriction. Rhesus variants: share among infected cells over input, higher = lost restriction. Reporter dose not given per row. No active / inactive call per row; the paper calls a change when both replicates lie above its controls (mean + 2 SD of stop or wild-type variants, or the top frameshift score). Residues outside the varied loop are taken from Swiss-Prot. The paper reads the human single-substitution scores as noise; they and the rhesus combinations repeat poorly (rank correlation 0.3 to 0.4), indel scores repeat only for the top variants, rhesus substitutions well (0.9).

The first data set concerns SIVsab (simian immunodeficiency virus of sabaeus monkeys), single-cycle GFP reporter, in CRFK cells. Kind of data set: enrichment among infected cells over input (fold); higher = weaker restriction. The note with it: library: human / rhesus combinations. The procedure:
(§1)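 Pools of CRFK cells expressing variants of the TRIM5α v1 loop were challenged with the single-cycle reporter, sorted by GFP and sequenced; mean of two replicates.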
As to “MASGILLNVKEEVTCPICLELLTEPLSLHCGHSFCQACITANHKKSMLYKEGERSCPVCRISYQPENIQPNRHVANIVEKLREVKLSPEEGQKVDHCARHGEKLLLFCQEDSKVICWLCERSQEHRGHHTFLMEEVAQEYHVKLQTALEMLRQKQQEAEKLEADIREEKASWKIQIDYDKTNVSADFEQLREILDWEESNELQNLEKEEEDILKSLTKSETEMVQQTQYMRELISELEHRLQGSMMDLLQGVDGIIKRIENMTLKKPKTFHKNQRRVFRAPDLKGMLDMFRELTDARRYWVDVTLAPNNISHAVIAEDKRQVSSRNPQIMYGAPGTLFPSFTNFNYCTGVLGSQSITSGKHYWEVDVSKKSAWILGVCAGFQSDAMYNIEQNENYQPKYGYWVIGLQEGVKYSVFQDGSSHTPFAPFIVPLSVIICPDRVGVFVDYEACTVSFFNITNHGFLIYKFSQCSFSKPVFPYLNPRKCTVPMTLCSPSS [rhesus TRIM5α, 332-344 = GAPGTLFPSFT]”, the enrichment is 2.27 ± 1.8.

The next data set has the same test system. Kind of data set: enrichment among uninfected cells over input (fold); higher = stronger restriction. The note with it: library: insertions and deletions. The procedure: as §1
“MASGILVNVKEEVTCPICLELLTQPLSLDCGHSFCQACLTANHKKSMLDKGESSCPVCRISYQPENIRPNRHVANIVEKLREVKLSPEGQKVDHCARHGEKLLLFCQEDGKVICWLCERSQEHRGHHTFLTEEVAREYQVKLQAALEMLRQKQQEAEELEADIREEKASWKTQIQYDKTNVLADFEQLRDILDWEESNELQNLEKEEEDILKSLTNSETEMVQQTQSLRELISDLEHRLQGSVMELLQGVDGVIKRTENVTLKKPETFPKNQRRVFRAPDLKGMLEVFRELTDVRRYWVDVTVAPNNISCAVISEDKRQVSSPKPRYQTFVNFNYCTGILGSQSITSGKHYWEVDVSKKTAWILGVCAGFQPDAMCNIEKNENYQPKYGYWVIGLEEGVKCSAFQDSSFHTPSVPFIVPLSVIICPDRVGVFLDYEACTVSFFNITNHGFLIYKFSHCSFSQPVFPYLNPRKCGVPMTLCSPSS [human TRIM5α, 9-codon deletion at 326]” showed an enrichment of 0.833 ± 0.43.
The same measure, in the same setting: then “MASGILVNVKEEVTCPICLELLTQPLSLDCGHSFCQACLTANHKKSMLDKGESSCPVCRISYQPENIRPNRHVANIVEKLREVKLSPEGQKVDHCARHGEKLLLFCQEDGKVICWLCERSQEHRGHHTFLTEEVAREYQVKLQAALEMLRQKQQEAEELEADIREEKASWKTQIQYDKTNVLADFEQLRDILDWEESNELQNLEKEEEDILKSLTNSETEMVQQTQSLRELISDLEHRLQGSVMELLQGVDGVIKRTENVTLKKPETFPKNQRRVFRAPDLKGMLEVFRELTDVRRYWVDVTVAPNNISCAVISEDKRQVSSPKPTRYQTFVNFNYCTGILGSQSITSGKHYWEVDVSKKTAWILGVCAGFQPDAMCNIEKNENYQPKYGYWVIGLEEGVKCSAFQDSSFHTPSVPFIVPLSVIICPDRVGVFLDYEACTVSFFNITNHGFLIYKFSHCSFSQPVFPYLNPRKCGVPMTLCSPSS [human TRIM5α, 8-codon deletion at 326]”, with 0.37 ± 0.058; and “MASGILVNVKEEVTCPICLELLTQPLSLDCGHSFCQACLTANHKKSMLDKGESSCPVCRISYQPENIRPNRHVANIVEKLREVKLSPEGQKVDHCARHGEKLLLFCQEDGKVICWLCERSQEHRGHHTFLTEEVAREYQVKLQAALEMLRQKQQEAEELEADIREEKASWKTQIQYDKTNVLADFEQLRDILDWEESNELQNLEKEEEDILKSLTNSETEMVQQTQSLRELISDLEHRLQGSVMELLQGVDGVIKRTENVTLKKPETFPKNQRRVFRAPDLKGMLEVFRELTDVRRYWVDVTVAPNNISCAVISEDKRQVSSPKPYGARGTRYQTFVNFNYCTGILGSQSITSGKHYWEVDVSKKTAWILGVCAGFQPDAMCNIEKNENYQPKYGYWVIGLEEGVKCSAFQDSSFHTPSVPFIVPLSVIICPDRVGVFLDYEACTVSFFNITNHGFLIYKFSHCSFSQPVFPYLNPRKCGVPMTLCSPSS [human TRIM5α, 3-codon deletion at 326]”, with 0.448 ± 0.044; and “MASGILVNVKEEVTCPICLELLTQPLSLDCGHSFCQACLTANHKKSMLDKGESSCPVCRISYQPENIRPNRHVANIVEKLREVKLSPEGQKVDHCARHGEKLLLFCQEDGKVICWLCERSQEHRGHHTFLTEEVAREYQVKLQAALEMLRQKQQEAEELEADIREEKASWKTQIQYDKTNVLADFEQLRDILDWEESNELQNLEKEEEDILKSLTNSETEMVQQTQSLRELISDLEHRLQGSVMELLQGVDGVIKRTENVTLKKPETFPKNQRRVFRAPDLKGMLEVFRELTDVRRYWVDVTVAPNNISCAVISEDKRQVSSPKQIIYGARGTRYQTFVNFNYCTGILGSQSITSGKHYWEVDVSKKTAWILGVCAGFQPDAMCNIEKNENYQPKYGYWVIGLEEGVKCSAFQDSSFHTPSVPFIVPLSVIICPDRVGVFLDYEACTVSFFNITNHGFLIYKFSHCSFSQPVFPYLNPRKCGVPMTLCSPSS [human TRIM5α, 1-codon deletion at 325]”, with 0.653 ± 0.57.
For the sequence “MASGILVNVKEEVTCPICLELLTQPLSLDCGHSFCQACLTANHKKSMLDKGESSCPVCRISYQPENIRPNRHVANIVEKLREVKLSPEGQKVDHCARHGEKLLLFCQEDGKVICWLCERSQEHRGHHTFLTEEVAREYQVKLQAALEMLRQKQQEAEELEADIREEKASWKTQIQYDKTNVLADFEQLRDILDWEESNELQNLEKEEEDILKSLTNSETEMVQQTQSLRELISDLEHRLQGSVMELLQGVDGVIKRTENVTLKKPETFPKNQRRVFRAPDLKGMLEVFRELTDVRRYWVDVTVAPNNISCAVISEDKRQVSSPKRGTRYQTFVNFNYCTGILGSQSITSGKHYWEVDVSKKTAWILGVCAGFQPDAMCNIEKNENYQPKYGYWVIGLEEGVKCSAFQDSSFHTPSVPFIVPLSVIICPDRVGVFLDYEACTVSFFNITNHGFLIYKFSHCSFSQPVFPYLNPRKCGVPMTLCSPSS [human TRIM5α, 7-codon deletion at 325]”, the enrichment amounted to 1.84 ± 1.4.
As to “MASGILVNVKEEVTCPICLELLTQPLSLDCGHSFCQACLTANHKKSMLDKGESSCPVCRISYQPENIRPNRHVANIVEKLREVKLSPEGQKVDHCARHGEKLLLFCQEDGKVICWLCERSQEHRGHHTFLTEEVAREYQVKLQAALEMLRQKQQEAEELEADIREEKASWKTQIQYDKTNVLADFEQLRDILDWEESNELQNLEKEEEDILKSLTNSETEMVQQTQSLRELISDLEHRLQGSVMELLQGVDGVIKRTENVTLKKPETFPKNQRRVFRAPDLKGMLEVFRELTDVRRYWVDVTVAPNNISCAVISEDKRQVSSPKTRYQTFVNFNYCTGILGSQSITSGKHYWEVDVSKKTAWILGVCAGFQPDAMCNIEKNENYQPKYGYWVIGLEEGVKCSAFQDSSFHTPSVPFIVPLSVIICPDRVGVFLDYEACTVSFFNITNHGFLIYKFSHCSFSQPVFPYLNPRKCGVPMTLCSPSS [human TRIM5α, 9-codon deletion at 325]”, the enrichment came out at 0.641 ± 0.084.
On to “MASGILVNVKEEVTCPICLELLTQPLSLDCGHSFCQACLTANHKKSMLDKGESSCPVCRISYQPENIRPNRHVANIVEKLREVKLSPEGQKVDHCARHGEKLLLFCQEDGKVICWLCERSQEHRGHHTFLTEEVAREYQVKLQAALEMLRQKQQEAEELEADIREEKASWKTQIQYDKTNVLADFEQLRDILDWEESNELQNLEKEEEDILKSLTNSETEMVQQTQSLRELISDLEHRLQGSVMELLQGVDGVIKRTENVTLKKPETFPKNQRRVFRAPDLKGMLEVFRELTDVRRYWVDVTVAPNNISCAVISEDKRQVSSPKYGARGTRYQTFVNFNYCTGILGSQSITSGKHYWEVDVSKKTAWILGVCAGFQPDAMCNIEKNENYQPKYGYWVIGLEEGVKCSAFQDSSFHTPSVPFIVPLSVIICPDRVGVFLDYEACTVSFFNITNHGFLIYKFSHCSFSQPVFPYLNPRKCGVPMTLCSPSS [human TRIM5α, 4-codon deletion at 325]”, for which the enrichment is 0.705 ± 0.16.
“MASGILVNVKEEVTCPICLELLTQPLSLDCGHSFCQACLTANHKKSMLDKGESSCPVCRISYQPENIRPNRHVANIVEKLREVKLSPEGQKVDHCARHGEKLLLFCQEDGKVICWLCERSQEHRGHHTFLTEEVAREYQVKLQAALEMLRQKQQEAEELEADIREEKASWKTQIQYDKTNVLADFEQLRDILDWEESNELQNLEKEEEDILKSLTNSETEMVQQTQSLRELISDLEHRLQGSVMELLQGVDGVIKRTENVTLKKPETFPKNQRRVFRAPDLKGMLEVFRELTDVRRYWVDVTVAPNNISCAVISEDKRQVSSPPQIIYGARGTRYQTFVNFNYCTGILGSQSITSGKHYWEVDVSKKTAWILGVCAGFQPDAMCNIEKNENYQPKYGYWVIGLEEGVKCSAFQDSSFHTPSVPFIVPLSVIICPDRVGVFLDYEACTVSFFNITNHGFLIYKFSHCSFSQPVFPYLNPRKCGVPMTLCSPSS [human TRIM5α, 1-codon deletion at 324]”: the enrichment is 1.15 ± 0.23.
For the sequence “MASGILVNVKEEVTCPICLELLTQPLSLDCGHSFCQACLTANHKKSMLDKGESSCPVCRISYQPENIRPNRHVANIVEKLREVKLSPEGQKVDHCARHGEKLLLFCQEDGKVICWLCERSQEHRGHHTFLTEEVAREYQVKLQAALEMLRQKQQEAEELEADIREEKASWKTQIQYDKTNVLADFEQLRDILDWEESNELQNLEKEEEDILKSLTNSETEMVQQTQSLRELISDLEHRLQGSVMELLQGVDGVIKRTENVTLKKPETFPKNQRRVFRAPDLKGMLEVFRELTDVRRYWVDVTVAPNNISCAVISEDKRQVSSPQIIYGARGTRYQTFVNFNYCTGILGSQSITSGKHYWEVDVSKKTAWILGVCAGFQPDAMCNIEKNENYQPKYGYWVIGLEEGVKCSAFQDSSFHTPSVPFIVPLSVIICPDRVGVFLDYEACTVSFFNITNHGFLIYKFSHCSFSQPVFPYLNPRKCGVPMTLCSPSS [human TRIM5α, 2-codon deletion at 324]”, the enrichment turned out to be 2.55 ± 3.3.
In turn, “MASGILVNVKEEVTCPICLELLTQPLSLDCGHSFCQACLTANHKKSMLDKGESSCPVCRISYQPENIRPNRHVANIVEKLREVKLSPEGQKVDHCARHGEKLLLFCQEDGKVICWLCERSQEHRGHHTFLTEEVAREYQVKLQAALEMLRQKQQEAEELEADIREEKASWKTQIQYDKTNVLADFEQLRDILDWEESNELQNLEKEEEDILKSLTNSETEMVQQTQSLRELISDLEHRLQGSVMELLQGVDGVIKRTENVTLKKPETFPKNQRRVFRAPDLKGMLEVFRELTDVRRYWVDVTVAPNNISCAVISEDKRQVSSPRGTRYQTFVNFNYCTGILGSQSITSGKHYWEVDVSKKTAWILGVCAGFQPDAMCNIEKNENYQPKYGYWVIGLEEGVKCSAFQDSSFHTPSVPFIVPLSVIICPDRVGVFLDYEACTVSFFNITNHGFLIYKFSHCSFSQPVFPYLNPRKCGVPMTLCSPSS [human TRIM5α, 8-codon deletion at 324]” registered an enrichment of 0.514 ± 0.6.
“MASGILVNVKEEVTCPICLELLTQPLSLDCGHSFCQACLTANHKKSMLDKGESSCPVCRISYQPENIRPNRHVANIVEKLREVKLSPEGQKVDHCARHGEKLLLFCQEDGKVICWLCERSQEHRGHHTFLTEEVAREYQVKLQAALEMLRQKQQEAEELEADIREEKASWKTQIQYDKTNVLADFEQLRDILDWEESNELQNLEKEEEDILKSLTNSETEMVQQTQSLRELISDLEHRLQGSVMELLQGVDGVIKRTENVTLKKPETFPKNQRRVFRAPDLKGMLEVFRELTDVRRYWVDVTVAPNNISCAVISEDKRQVSSPYGARGTRYQTFVNFNYCTGILGSQSITSGKHYWEVDVSKKTAWILGVCAGFQPDAMCNIEKNENYQPKYGYWVIGLEEGVKCSAFQDSSFHTPSVPFIVPLSVIICPDRVGVFLDYEACTVSFFNITNHGFLIYKFSHCSFSQPVFPYLNPRKCGVPMTLCSPSS [human TRIM5α, 5-codon deletion at 324]” returned an enrichment of 0.879 ± 0.023.
